Source: the supplement of paper PMC8728848
The other results are listed elsewhere or left out.

Columns and labels:
Assay in all cases: glycan array binding signal (z-score within array); higher = stronger binding
Settings in all cases: glycan notation: IUPAC condensed, linker removed
GalNAc3S(b1-4)GlcNAc3S = biological target: GalNAc3S(b1-4)GlcNAc3S
Method in brief: (§1)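 Negative Z-scores can be read as non-binding. The Z-score is calculated within each array and then averaged across arrays of one protein sequence at different concentrations or buffers and across linkers. Arrays, 3228 in all, were curated from the Consortium for Functional Glycomics database and kept only where the protein sequence was available.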

[1] = biological target: GalNAc3S(b1-4)[Fuc(a1-3)]GlcNAc
Method in brief: as §1

GalNAc4S6S(b1-4)GlcNAc = biological target: GalNAc4S6S(b1-4)GlcNAc
Method in brief: as §1

GalNAc6S(b1-4)GlcNAc = biological target: GalNAc6S(b1-4)GlcNAc
Method in brief: as §1

Glc(a1-4)Glc = biological target: Glc(a1-4)Glc
Method in brief: as §1

[2] = biological target: Glc(a1-4)Glc(a1-4)Glc(a1-4)Glc
Method in brief: as §1

Glc(a1-6)Glc(a1-6)Glc = biological target: Glc(a1-6)Glc(a1-6)Glc
Method in brief: as §1

[3] = biological target: Glc(a1-6)Glc(a1-6)Glc(a1-6)Glc
Method in brief: as §1

Glc(b1-4)Glc = biological target: Glc(b1-4)Glc
Method in brief: as §1

Glc(b1-6)Glc = biological target: Glc(b1-6)Glc
Method in brief: as §1

GlcA(b1-3)Gal = biological target: GlcA(b1-3)Gal
Method in brief: as §1

GlcA(b1-3)GlcNAc = biological target: GlcA(b1-3)GlcNAc
Method in brief: as §1

GlcA(b1-6)Gal = biological target: GlcA(b1-6)Gal
Method in brief: as §1

[4] = biological target: GlcA3S(b1-3)Gal(b1-4)GlcNAc(b1-2)Man
Method in brief: as §1

[5] = biological target: GlcA3S(b1-3)Gal(b1-4)GlcNAc(b1-3)Gal(b1-4)Glc
Method in brief: as §1

[6] = biological target: GlcNAc(a1-3)Gal(b1-4)GlcNAc
Method in brief: as §1

[7] = biological target: GlcNAc(a1-4)Gal(b1-3)GlcNAc
Method in brief: as §1

[8] = biological target: GlcNAc(a1-4)Gal(b1-4)GalNAc
Method in brief: as §1

[9] = biological target: GlcNAc(a1-4)Gal(b1-4)GlcNAc
Method in brief: as §1

[10] = biological target: GlcNAc(a1-4)Gal(b1-4)GlcNAc(b1-3)Gal(b1-4)Glc
Method in brief: as §1

[11] = biological target: GlcNAc(a1-4)Gal(b1-4)GlcNAc(b1-3)Gal(b1-4)GlcNAc
Method in brief: as §1

[12] = biological target: GlcNAc(a1-4)Gal(b1-4)GlcNAc(b1-3)Gal(b1-4)GlcNAc(b1-3)Gal(b1-4)GlcNAc
Method in brief: as §1

[13] = biological target: GlcNAc(a1-4)Gal(b1-4)GlcNAc(b1-3)Gal(b1-4)[Fuc(a1-3)]GlcNAc(b1-3)Gal(b1-4)[Fuc(a1-3)]GlcNAc
Method in brief: as §1

[14] = biological target: GlcNAc(a1-6)Gal(b1-4)GlcNAc
Method in brief: as §1

[15] = biological target: GlcNAc(b1-2)Gal(b1-3)GalNAc
Method in brief: as §1

[16] = biological target: GlcNAc(b1-2)Man(a1-3)[GlcNAc(b1-2)Man(a1-6)]Man(b1-4)GlcNAc(b1-4)GlcNAc
Method in brief: as §1

[17] = biological target: GlcNAc(b1-2)Man(a1-3)[GlcNAc(b1-2)Man(a1-6)]Man(b1-4)GlcNAc(b1-4)[Fuc(a1-6)]GlcNAc
Method in brief: as §1

[18] = biological target: GlcNAc(b1-2)Man(a1-3)[GlcNAc(b1-4)][GlcNAc(b1-2)Man(a1-6)]Man(b1-4)GlcNAc(b1-4)GlcNAc
Method in brief: as §1

[19] = biological target: GlcNAc(b1-2)Man(a1-3)[GlcNAc(b1-4)][GlcNAc(b1-2)Man(a1-6)]Man(b1-4)GlcNAc(b1-4)[Fuc(a1-6)]GlcNAc
Method in brief: as §1

[20] = biological target: GlcNAc(b1-2)[GlcNAc(b1-4)]Man(a1-3)[GlcNAc(b1-2)Man(a1-6)]Man(b1-4)GlcNAc(b1-4)GlcNAc
Method in brief: as §1

[21] = biological target: GlcNAc(b1-2)[GlcNAc(b1-4)]Man(a1-3)[GlcNAc(b1-4)][GlcNAc(b1-2)Man(a1-6)]Man(b1-4)GlcNAc(b1-4)GlcNAc
Method in brief: as §1

[22] = biological target: GlcNAc(b1-2)[GlcNAc(b1-4)]Man(a1-3)[GlcNAc(b1-4)][GlcNAc(b1-2)[GlcNAc(b1-6)]Man(a1-6)]Man(b1-4)GlcNAc(b1-4)GlcNAc
Method in brief: as §1

[23] = biological target: GlcNAc(b1-2)[GlcNAc(b1-4)]Man(a1-3)[GlcNAc(b1-4)][GlcNAc(b1-2)[GlcNAc(b1-6)]Man(a1-6)]Man(b1-4)GlcNAc(b1-4)[Fuc(a1-6)]GlcNAc
Method in brief: as §1

[24] = biological target: GlcNAc(b1-2)[GlcNAc(b1-6)]Man(a1-6)[GlcNAc(b1-2)Man(a1-3)]Man(b1-4)GlcNAc(b1-4)GlcNAc
Method in brief: as §1

[25] = biological target: GlcNAc(b1-2)[GlcNAc(b1-6)]Man(a1-6)[GlcNAc(b1-2)Man(a1-3)]Man(b1-4)GlcNAc(b1-4)[Fuc(a1-6)]GlcNAc
Method in brief: as §1

[26] = biological target: GlcNAc(b1-2)[GlcNAc(b1-6)]Man(a1-6)[GlcNAc(b1-4)][GlcNAc(b1-2)Man(a1-3)]Man(b1-4)GlcNAc(b1-4)GlcNAc
Method in brief: as §1

GlcNAc(b1-3)Fuc = biological target: GlcNAc(b1-3)Fuc
Method in brief: as §1

GlcNAc(b1-3)Gal = biological target: GlcNAc(b1-3)Gal
Method in brief: as §1

B1: AFL5 (Aspergillus fumigatus), Q4WB00 (protein)
chain: MDNFMEMTKKLGHQPELLRLRALDATYDDALEGKLVVAPLDMSEPGKKILDSGTADGTWLRNVRSKQSVPHDYYGSDVEGELFPKDPDGITYFAHSFKDPWPQQYLGFFDLVHIRGSLAGSAPEGPAPVIQNLTTLLKPGGWVQLMEMNAFSPPPNGPAMTDFAKMASEMFTGIGVGDFANNNKSMLEDAGLKNVQEKRVIVNLGKKAKPELHDQSIHGVTGPIVPLTSVARTVKSSFTGEQLDALPARVKEELETEGGQVEMIIAFGQKA
GalNAc3S(b1-4)GlcNAc3S
  glycan array binding signal (z-score): -0.187
[1]
  glycan array binding signal (z-score): -0.018
GalNAc4S6S(b1-4)GlcNAc
  glycan array binding signal (z-score): 0.419
GalNAc6S(b1-4)GlcNAc
  glycan array binding signal (z-score): -0.039
Glc(a1-4)Glc
  glycan array binding signal (z-score): -0.249
[2]
  glycan array binding signal (z-score): -0.132
Glc(a1-6)Glc(a1-6)Glc
  glycan array binding signal (z-score): -0.508
[3]
  glycan array binding signal (z-score): -0.101
Glc(b1-4)Glc
  glycan array binding signal (z-score): -0.076
Glc(b1-6)Glc
  glycan array binding signal (z-score): -0.495
GlcA(b1-3)Gal
  glycan array binding signal (z-score): 0.024
GlcA(b1-3)GlcNAc
  glycan array binding signal (z-score): 0.043
GlcA(b1-6)Gal
  glycan array binding signal (z-score): -0.217
[4]
  glycan array binding signal (z-score): 0.082
[5]
  glycan array binding signal (z-score): -0.288
[6]
  glycan array binding signal (z-score): -0.222
[7]
  glycan array binding signal (z-score): -0.636
[8]
  glycan array binding signal (z-score): -0.749
[9]
  glycan array binding signal (z-score): -0.335
[10]
  glycan array binding signal (z-score): -0.813
[11]
  glycan array binding signal (z-score): 0.353
[12]
  glycan array binding signal (z-score): -0.547
[13]
  glycan array binding signal (z-score): 0.139
[14]
  glycan array binding signal (z-score): 0.694
[15]
  glycan array binding signal (z-score): -0.494
[16]
  glycan array binding signal (z-score): -0.115
[17]
  glycan array binding signal (z-score): 0.047
[18]
  glycan array binding signal (z-score): 0.061
[19]
  glycan array binding signal (z-score): 0.115
[20]
  glycan array binding signal (z-score): -0.373
[21]
  glycan array binding signal (z-score): -0.125
[22]
  glycan array binding signal (z-score): -0.348
[23]
  glycan array binding signal (z-score): 0.042
[24]
  glycan array binding signal (z-score): 0.006
[25]
  glycan array binding signal (z-score): 1.09
[26]
  glycan array binding signal (z-score): 0.01
GlcNAc(b1-3)Fuc
  glycan array binding signal (z-score): 0.573
GlcNAc(b1-3)Gal
  glycan array binding signal (z-score): 0.055
